Screen size: about 110,000 compounds; about 230 (0.21%) showed an effect of 50% or more. This is one part of the list.
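Further: 30 min substrate incubation versus DMSO and 10 µM JCP410 controls.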

The experiment deals with DPAP1 (Plasmodium falciparum, UniProt Q8IIJ9). Put plainly: primary screen, percent inhibition; read by cleavage of a fluorogenic dipeptide substrate; higher = more effect of the substance. Details: species or system P. falciparum D10 trophozoite lysates; single well.
Sequence of DPAP1 (Q8IIJ9 whole entry, looked up): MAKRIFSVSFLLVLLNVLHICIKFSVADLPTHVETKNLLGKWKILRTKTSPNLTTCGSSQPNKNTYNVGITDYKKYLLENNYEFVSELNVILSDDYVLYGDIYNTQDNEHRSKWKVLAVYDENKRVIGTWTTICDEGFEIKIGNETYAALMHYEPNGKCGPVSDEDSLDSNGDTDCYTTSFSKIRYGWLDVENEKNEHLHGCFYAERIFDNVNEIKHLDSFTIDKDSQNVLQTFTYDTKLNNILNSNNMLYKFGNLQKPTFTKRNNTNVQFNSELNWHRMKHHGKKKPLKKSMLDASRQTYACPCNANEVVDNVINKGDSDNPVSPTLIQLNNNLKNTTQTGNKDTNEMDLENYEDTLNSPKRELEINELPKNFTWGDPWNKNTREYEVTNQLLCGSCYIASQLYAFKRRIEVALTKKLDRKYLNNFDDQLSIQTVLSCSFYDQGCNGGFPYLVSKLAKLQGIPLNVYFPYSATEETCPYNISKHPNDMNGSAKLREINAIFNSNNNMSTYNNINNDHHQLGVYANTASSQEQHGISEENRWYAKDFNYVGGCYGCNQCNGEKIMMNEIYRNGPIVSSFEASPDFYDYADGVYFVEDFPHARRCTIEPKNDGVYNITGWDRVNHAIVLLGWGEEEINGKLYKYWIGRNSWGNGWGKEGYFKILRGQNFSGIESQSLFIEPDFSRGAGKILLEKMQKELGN
`Cc1nc2c(c(C)nn2-c2ccccc2)c(C)c1CCC(=O)N1CCN(Cc2ccccc2)CC1`: the “% Inhibition @ 10 uM” value was -2.45%.

Turning to `COc1cc(S(=O)(=O)N2CCOCC2)c(OC)c2c(C)cc(O)nc12`, the “% Inhibition @ 10 uM” value is recorded as 3.47%.

In the case of `CC(C)n1cnc2cc(NC(=O)c3cccs3)ccc21`, the “% Inhibition @ 10 uM” value amounted to 7.58%.

Consider `CCC(C(=O)NCCCN(CC)Cc1ccccc1)n1nc(C)c2sc3ccccc3c2c1=O` (stereo not shown), for which the “% Inhibition @ 10 uM” value is reported as -0.229%.

Turning to `Cc1ccc(S(=O)(=O)CC(=O)NC(C)(C)C)cc1`, the “% Inhibition @ 10 uM” value was 3.49%.

As to `CCc1cc(=O)oc2c3c(c(Cl)cc12)OCN(Cc1ccccc1OC)C3`, the “% Inhibition @ 10 uM” value was -4.39%.

As for `CCn1c(=O)sc2cccc(Cl)c21`, the “% Inhibition @ 10 uM” value came out at 8.45%.

For the compound `COC(=S)NC(=O)/C=C/c1ccccc1`, the “% Inhibition @ 10 uM” value is -0.833%.

In the case of `Cc1ccccc1CNC(=O)CN1C(=O)c2ccccc2S1(=O)=O`, the “% Inhibition @ 10 uM” value worked out at 1.64%.

Regarding `Cc1ccc(S(=O)(=O)c2nc(S(C)(=O)=O)sc2NCCCN(C)C)cc1`, the “% Inhibition @ 10 uM” value came out at 1.15%.

As to `CCCCOc1cccc(C2C(C(=O)c3ccc(C)o3)=C(O)C(=O)N2c2nccs2)c1` (stereo not shown), the “% Inhibition @ 10 uM” value stood at 4.88%.

In the case of `Cc1c(C=O)c(C(=O)O)c(C)n1Cc1ccccc1Cl`, the “% Inhibition @ 10 uM” value is listed as -3.53%.

Regarding `O=C(NCc1ccccc1Cl)C(Cc1ccccc1)NS(=O)(=O)c1cccc2cccnc12` (stereo not shown), the “% Inhibition @ 10 uM” value is -0.458%.

Regarding `O=C(Nc1ccc(Cl)cc1)Nc1ccc(Cl)c(C(=O)O)c1`, the “% Inhibition @ 10 uM” value is on record as -3.65%.

For the compound `O=S(=O)(c1cccc2nonc12)N1CCN(c2cccc(Cl)c2)CC1`, the “% Inhibition @ 10 uM” value is on record as -3.69%.

`O=S(=O)(c1ccccc1)c1cnc2cc3c(cc2c1O)OCCO3`: the “% Inhibition @ 10 uM” value is -0.0115%.

Consider `Cc1nc2ccn(Cc3cccnc3)c(=O)c2cc1C(=O)NC1CCCCC1`, for which the “% Inhibition @ 10 uM” value is listed as -6.31%.

Consider `NC(=O)C1CCN(Cc2ccc(Cl)c(Cl)c2)CC1`, for which the “% Inhibition @ 10 uM” value is -3.64%.

As for `CCOCCCNC(=O)CS(=O)Cc1nc(-c2ccccc2C)oc1C` (stereo not shown), the “% Inhibition @ 10 uM” value came to 0.689%.

Regarding `CCCCC1CN(C)CCC1(O)c1ccccc1` (stereo not shown), the “% Inhibition @ 10 uM” value was 4.04%.

As to `CCCCn1c(=O)c(C(=O)Nc2ccc(C)cc2C)c(O)c2ccccc21`, the “% Inhibition @ 10 uM” value is on record as -3.27%.

Consider `COc1ccc(CN2CCN(C/C=C/c3ccccc3)CC2)c(C)c1C`, for which the “% Inhibition @ 10 uM” value was 3.8%.

Turning to `COc1ccc(Br)cc1CNC(=O)c1cnc(SC)nc1C`, the “% Inhibition @ 10 uM” value is -1.08%.

Consider `CCSc1nnc(NC(=O)C(NS(=O)(=O)c2cccc3nsnc23)C(C)C)s1` (stereo not shown), for which the “% Inhibition @ 10 uM” value is reported as -6.03%.

`COc1ccc(-c2nn(C)c(=O)c3ccccc23)cc1CNS(=O)(=O)c1ccc(Cl)cc1`: the “% Inhibition @ 10 uM” value was determined as 0.413%.

Take `CC(C)NC(=O)/C=C/c1ccc(C(C)C)cc1`: the “% Inhibition @ 10 uM” value is reported as 1.92%.

For `COc1ccc(-n2c(SCC(=O)O)nnc2-c2ccc(OC)c(OC)c2)cc1`, the “% Inhibition @ 10 uM” value is reported as -0.495%.

Take `COc1ccc(CN(C(=O)c2nc(SC(C)C)ncc2Cl)C2CCS(=O)(=O)C2)cc1` (stereo not shown): the “% Inhibition @ 10 uM” value is given as 2.41%.

As to `CCC(CC)C(C#N)NC(=O)[C@H](CC(C)C)NC(=O)OCc1ccccc1` (stereo partly shown), the “% Inhibition @ 10 uM” value is recorded as -1.41%.

For `CCCN(CCC)C(=O)C1CCCN(c2ncnc3onc(C)c23)C1` (stereo not shown), the “% Inhibition @ 10 uM” value is -1.52%.

With `CC(C)CC(CC(C)C)C(=O)NCC#N`, the “% Inhibition @ 10 uM” value is 3.19%.

For the compound `COc1ccc(Cl)cc1C(=O)Nc1sc(C)c(C)c1C#N`, the “% Inhibition @ 10 uM” value is given as 2.44%.

`Cc1nnc(N2CCCC(C(=O)NC(C)c3ccccc3)C2)c2nn(-c3ccc(Cl)cc3)c(C)c12` (stereo not shown): the “% Inhibition @ 10 uM” value was determined as 4.23%.

For the compound `CC(=O)C1=C(N2CCCCC2)c2ccc(-c3ccccc3)n2C1=O`, the “% Inhibition @ 10 uM” value is -2.5%.

`CCOC(=O)c1c(C)n(Cc2ccc3c(c2)OCO3)c2ccc(O)cc12`: the “% Inhibition @ 10 uM” value is -2.39%.

Take `N#Cc1ccc(-c2cccnc2)nc1SCC(=O)O`: the “% Inhibition @ 10 uM” value was -2.45%.

Turning to `CN1CC=C2C(C#N)=C(N)C(C#N)(C#N)C(c3cccs3)C2C1` (stereo not shown), the “% Inhibition @ 10 uM” value turned out to be 3.77%.

For the compound `C=CCNC(=O)/C(NC(=O)c1ccccc1)=C(/Sc1ccc(Cl)cc1)c1ccccc1`, the “% Inhibition @ 10 uM” value is given as -3.98%.

With `O=S(=O)(Nc1nc2ccccc2nc1N1CCN(c2ccccn2)CC1)c1ccc(Cl)cc1`, the “% Inhibition @ 10 uM” value is given as -0.704%.

`CCOC(=O)N1CCC(NC(=O)c2sc3nc(C)cc(C)c3c2-n2cccc2)CC1`: the “% Inhibition @ 10 uM” value stood at 2.27%.

`O=S(=O)(/N=C/c1c(O)ccc2ccccc12)c1cccs1`: the “% Inhibition @ 10 uM” value was -3.14%.

For the compound `CC12CN3CC(c4ccccc4)(CN(C1)C3c1ccccc1)C2=O` (stereo not shown), the “% Inhibition @ 10 uM” value worked out at 6.7%.

With `COc1ccc(CN2C(=O)c3cccnc3C2=O)cc1S(=O)(=O)NCc1ccc(C)o1`, the “% Inhibition @ 10 uM” value is on record as -3.45%.

Take `Cc1cc(C)c(Cn2c(C)c(CNCc3ccc(C)o3)c(C(=O)O)c2C)c(C)c1`: the “% Inhibition @ 10 uM” value worked out at 7.46%.

With `CCN(C(=O)c1ccc(Br)cc1)c1ccccc1C`, the “% Inhibition @ 10 uM” value was -1.22%.

As for `CCC(CC)c1nc(O)c2ccccc2n1`, the “% Inhibition @ 10 uM” value amounted to 4.25%.

Take `COc1cc(COC(=O)N[C@@H](CC(C)C)C(=O)NCC#N)cc(OC)c1`: the “% Inhibition @ 10 uM” value was 0.174%.

`Cc1cc(N2CCCCC2)nc(N(CCO)CCO)n1`: the “% Inhibition @ 10 uM” value is 4.42%.

Turning to `Cc1ccc(C)c(OCCCn2cc(C(=O)O)c3ccccc32)c1`, the “% Inhibition @ 10 uM” value is listed as 0.627%.

For `CCOc1ccccc1OCc1nn2c(-c3ccc(C(C)(C)C)cc3)nnc2s1`, the “% Inhibition @ 10 uM” value is given as -5.62%.

In the case of `CN(C)Cc1ccccc1C(O)(c1ccccc1)c1ccccc1`, the “% Inhibition @ 10 uM” value is -4.26%.

For the compound `CN(CC(=O)NCc1ccc2c(c1)OCO2)S(=O)(=O)c1cccc2nsnc12`, the “% Inhibition @ 10 uM” value is reported as 2%.

Take `CCCCCC1CCC(c2ccc(C(=O)N3CCOCC3)cc2)CC1` (stereo not shown): the “% Inhibition @ 10 uM” value is recorded as -3.35%.

On to `CCCN1CCN(C(=O)Cn2nc(C)n3c(cc4c(OC)cccc43)c2=O)CC1`, for which the “% Inhibition @ 10 uM” value was -3.47%.

As to `OCCn1nc(-c2ccccc2)cc1-c1ccccc1`, the “% Inhibition @ 10 uM” value is 0.612%.

On to `Cc1ccc(CNC(=O)C2Sc3nnc(C)n3NC2c2ccccc2)cc1` (stereo not shown), for which the “% Inhibition @ 10 uM” value is listed as -9.37%.

Turning to `Cn1c(=O)c2c(O)c3c(nc2n(C)c1=O)CCCC3`, the “% Inhibition @ 10 uM” value stood at 4%.

Consider `CCOc1ccc(-c2nn(-c3ccccc3)cc2/C=N/C2CCS(=O)(=O)C2)cc1C` (stereo not shown), for which the “% Inhibition @ 10 uM” value is reported as -1.25%.

Take `C/N=c1\c(NC(=O)c2c(-c3ccccc3Cl)noc2C)c(O)oc2ccccc12`: the “% Inhibition @ 10 uM” value is -0.0709%.

Turning to `Cc1[nH]c2ccc([N+](=O)[O-])cc2c1C`, the “% Inhibition @ 10 uM” value was 2.62%.

`O=C(O)c1cc(C(=O)O)cc(N2C(=O)C3C4C=CC(C4)C3C2=O)c1` (stereo not shown): the “% Inhibition @ 10 uM” value is -1.77%.

Turning to `O=C(CNS(=O)(=O)c1ccc(F)cc1)N1CCCCCC1`, the “% Inhibition @ 10 uM” value is 3.75%.

For the compound `Cc1ccc(N2C(=O)C(C)SC23C(=O)Nc2ccccc23)cc1` (stereo not shown), the “% Inhibition @ 10 uM” value is listed as 3.88%.

Turning to `Cc1ccccc1OCCCCn1nnc2sc3c(c2c1=O)CCCC3`, the “% Inhibition @ 10 uM” value is -2.71%.
